In ChEMBL document CHEMBL4888484, “Replenishing the malaria drug discovery pipeline: Screening and hit evaluation of the MMV Hit Generation Library 1 (HGL1) against asexual blood stage Plasmodium falciparum ,using a nano luciferase reporter read-out” (2022):
Hit rate of the full screen: of about 150,000 compounds, about 540 (0.36%) showed an effect of 50% or more. The list shows a part of the results.

The compounds below were run on Plasmodium falciparum (assay: Primary screen in NF54 nanoGlo assay, in single point, at 2uM, 72h; a lower Z score goes with more inhibition). Conditions: timepoint 72 hour.
Assay type: functional, Erythrocyte

| SMILES | % Inhibition [%] | Z score |
| --- | --- | --- |
| Cc1ccc(NC2CCN(C(=O)CCc3cncc(F)c3)CC2)cc1 | -9 | 1.07 |
| Cn1c(Cn2cccn2)nnc1[C@H]1C[C@@H](Nc2cccc(C#N)n2)C1 | -7 | 1.21 |
| COC[C@H]1CCCN1C(=O)C[C@@H]1O[C@H](CNC(=O)Nc2ccccc2)[C@@H](O)[C@H]1O | 36 | -4.13 |
| CC1(C)CN(C(=O)Nc2cc(-c3ccccc3)on2)CC[S@@+]1[O-] | -3 | 0.25 |
| NC(=O)c1cc(CN[C@H]2CCCc3cccnc32)n2c1CCCC2 | -4 | 0.46 |
| Cc1cc2n(n1)CCC(=O)N2CC(=O)NCc1ccc(C)o1 | -12 | 1.2 |
| Cc1cccc(Oc2ccc(NC(=O)N3CC[C@H](O)C3)cn2)c1C | 6 | -0.7 |
| CCN1C[C@@H](CN(C)c2nccnc2C#N)CC1=O | 2 | -0.23 |
| COc1ccc(OC)c(CNC(=O)[C@H]2CCCN(c3cnc4nccnc4c3)C2)c1 | -4 | 0.67 |
| CCN(CC)c1nnc(-c2cccc(C#N)c2)[nH]1 | -14 | 2.51 |
| CCNC(=O)N1CCN(c2nc(C3CC3)nc(C)c2Cc2ccc(C)cc2)CC1 | -13 | 1.19 |
| OC[C@H]1CCCCN1Cc1ccc2c(c1)CN(Cc1cccn1-c1ccc(Cl)cn1)CCO2 | 11 | -1.42 |
| O=S(=O)(NCc1ccco1)C1CCOC(C(F)(F)F)C1 (stereo unspecified) | -16 | 2.09 |
| CC(C)(C(=O)Cn1ncsc1=O)c1ccccc1 | -8 | 0.73 |
| O=S(=O)(CCc1cccc(F)c1)N1CCC[C@H]1c1ncccn1 | -1 | 0.19 |
| Cn1nccc1-c1ccc(-c2cnn(-c3nnn[nH]3)c2)cc1 | 3 | -0.47 |
| COc1ccc(CN2CC[C@H](NC(=O)CCc3c(C)noc3C)C2)cn1 | -10 | 1.27 |
| Cc1ccccc1CCCNC(C)(C)C(=O)N(C)C | -2 | 0.33 |
| COc1ccc(N2CCN(C(=O)Cn3c(-c4cccs4)cc4cc(Cl)ccc43)CC2)cc1 | -2 | 0.3 |
| CCc1cc(N2CCN(C(=O)C[C@@H]3NC(=O)NC3=O)CC2)ncn1 | 3 | -0.67 |
| CCCN1C(=O)c2cc(S(=O)(=O)NC[C@H]3CCCO3)ccc2Oc2cccnc21 | 0 | -0.06 |

| SMILES | % Inhibition [%] | Z score |
| --- | --- | --- |
| O=C(NCc1ccco1)c1ccccc1-c1ccccc1 | -6 | 0.75 |
| CCc1cc(C(=O)N2CCCN(C(=O)CCc3ccc(OC)cc3)CC2)sc1C | -11 | 1.17 |
| Cn1cc(CN[C@H]2[C@H](O)[C@@H](n3cnc4ccccc43)[C@@H]3OC[C@H]2O3)cn1 | -7 | 1.04 |
| C[C@H](NC(=O)COc1ccc(-c2nc3ccccc3s2)cc1CN(C)C)c1ccco1 | 1 | -0.11 |
| CN(C1CCN(CC(F)(F)F)C1=O)C(CO)c1cccc(F)c1 (stereo unspecified) | -6 | 1.14 |
| CCn1ncc(CN(C)c2nccnc2OC)c1C | -1 | 0.18 |
| CCC(=O)Nc1ccc(C)cc1-c1nc2ccccc2n(CC(=O)Nc2ccccc2Cl)c1=O | -5 | 1.03 |
| Cn1ccnc1C(NC(=O)C1CC(=O)N(c2ccccc2Cl)C1)c1ccc(Cl)cc1 (stereo unspecified) | 13 | -1.8 |
| Cc1cnc(CNC(CC2CCOC2)c2ccccc2)o1 (stereo unspecified) | -16 | 2.33 |
| Cc1noc(C)c1CC(=O)N1Cc2c(C(=O)NCc3cccnc3)nn(C)c2C1 | -15 | 1.84 |
| Cc1cc(C(=O)NC[C@H]2CCCN(C(=O)c3ccc4c(c3)CCO4)C2)no1 | -5 | 0.88 |
| Nc1ncnc(N2CCCc3ccccc32)n1 | -15 | 2.26 |
| O=C(COc1ccc(Cl)cc1)NCc1ccc2c(c1)CCN2C(=O)c1ccccc1 | -12 | 2.31 |
| C[C@@H](CN(C)c1nccnc1N(C)C)N1CCOCC1 | 4 | -0.48 |
| COc1ccc(NC(=O)Cn2c(C)nc3c(-c4ccncc4)nsc3c2=O)cc1Cl | -6 | 0.87 |
| CS(=O)(=O)[C@H]1CCCN(C(=O)c2cc(F)c(F)c(O)c2F)CC1 | 3 | -0.52 |
| O=C(CN1CCOC1=O)N(CC1CCN(Cc2ccccc2F)CC1)C[C@H]1CCCO1 | -17 | 1.57 |
| O=C(NCc1cccnc1-n1ccnc1)c1ccccc1Nc1cccc(C(F)(F)F)c1 | 11 | -2.02 |
| CCc1cc(CN(C)C2CCC3(CC2)CCN(C(=O)N(C)C)CC3)on1 | -2 | 0.44 |
| O=S1(=O)CCN(c2nc3cc(Cl)cc(Cl)c3o2)CCC12CCC2 | -10 | 0.94 |
| CC(C)Cc1nc(CN(C)S(=O)(=O)[C@H]2CCS(=O)(=O)C2)no1 | -8 | 1.6 |

| SMILES | % Inhibition [%] | Z score |
| --- | --- | --- |
| Cc1cc(Cl)c(NC(=O)NCC(=O)NCC2CC2)cc1Cl | -6 | 0.64 |
| CO[C@@]12CC[C@H](OCCO)C[C@@H]1N(Cc1cn3cc(C)ccc3n1)CC2 | -9 | 1.09 |
| CC1(c2noc(-c3ccccc3)n2)CCN(C(=O)C2CCN(S(=O)(=O)N3CCOCC3)CC2)CC1 | -16 | 2.06 |
| CCc1cnc(CN(C)C(=O)c2cnn(C(C)(C)C)c2)s1 | -9 | 1.13 |
| CC(C)C(=O)Nc1ccc(S(=O)(=O)NCC2CCN(S(=O)(=O)N(C)C)CC2)cc1 | -12 | 1.43 |
| CC(C)N(C)CC1CCN(C(=O)c2c[nH]c(C(F)(F)F)c2)CC1 | -8 | 0.98 |
| Cc1occc1C(=O)N1CCC[C@@](F)(c2nc(C3CC3)no2)C1 | -3 | 0.42 |
| CNc1nc(C(N)=O)c(NC(=O)COc2ccccc2OC)s1 | -15 | 1.41 |
| Cc1n[nH]c(C)c1CCCNC(=O)[C@@H]1Cc2ccccc2CN1C | -7 | 1.24 |
| CN(C)CCn1ccnc1C1CCN(C(=O)c2ccc3c(c2)CCC3)CC1 | -15 | 1.94 |
| CCOCCCNC(=O)[C@@H](c1ccc(C)cc1)N(Cc1ccc2c(c1)OCO2)C(=O)CNC(C)=O | -3 | 0.43 |
| CCCCc1nc(-c2nc3cc4[nH]c(=O)[nH]c4cc3[nH]2)c[nH]1 | 10 | -1.4 |
| O=C(Cc1ccsc1)NCC1CCOCC1 | -4 | 0.66 |
| COCc1nccc(NC(=O)N2CCC(CCc3ccc(F)cc3F)CC2)n1 | 0 | 0.08 |
| O=C(NC1CCCC1)N1CCC(Oc2ccccc2F)(C(=O)O)CC1 | -9 | 0.95 |
| O=C([C@H]1CC(=O)N(c2ccccc2)C1)N1CC(c2nc(-c3ncccn3)no2)C1 | 4 | -0.81 |
| COc1ccc2[nH]c(CN[C@@H](C)Cn3cnc4ccccc4c3=O)cc2c1 | -18 | 1.94 |
| CN(Cc1ccccc1)C1(C(=O)N2CCC(O)CC2)Cc2ccccc2C1 | 6 | -1.01 |
| CCCS(=O)(=O)N1CCC[C@H]1c1nnc(C(=O)Nc2cccc(Cl)c2)s1 | -4 | 0.46 |
| c1ccc(N2CCN(CCc3nnc4n3CCCC4)CC2)cc1 | -4 | 0.61 |
| CC(CNC(=O)NC(C)C(C)CO)c1ccc(F)c(F)c1 (stereo unspecified) | -12 | 1.8 |

| SMILES | % Inhibition [%] | Z score |
| --- | --- | --- |
| O=C(O)c1cccc2c1OCCN(CCc1cccnc1)C2 | -5 | 0.89 |
| Cc1nnnn1CCCN1CC[C@]2(CCCO2)CCC1=O | -5 | 0.8 |
| COc1ccc(C2(O)c3ccccc3NC(=O)C2OC)cc1 (stereo unspecified) | 4 | -0.66 |
| CCc1csc(CNC(=O)C[C@H]2CCOC2)n1 | -14 | 1.79 |
| Clc1ccc(CN2CC[C@H](C3CCN(c4ncnc5c4CCC5)CC3)C2)cc1 | -9 | 0.83 |
| COCC1(CNC(=O)c2ccc(-c3ccnc(C(=O)O)c3)cc2)CCC1 | -5 | 0.73 |
| Cc1cc(CNc2nnc(CO)o2)cc(C)c1OCc1ccccc1Cl | 1 | -0.19 |
| CCc1ncc(CN(C)C(=O)[C@@H](C)Cc2c(C)n[nH]c2C)s1 | -4 | 0.48 |
| CCCc1nc(CS(=O)(=O)CCCCC#N)cs1 | 24 | -2.53 |
| c1ccc2c(c1)c(NCc1ccncc1)nn1cnnc21 | -11 | 1.26 |
| FC1(F)CCN(c2cc([C@H]3CCOC3)ncn2)CC1 | -5 | 1.02 |
| C=CCCCNc1ccccc1C(=O)N(C)C | -3 | 0.44 |
| CCC1(CO)CCN(C(=O)NC(C)C2CN(C)CCO2)CC1 (stereo unspecified) | -15 | 1.52 |
| O=C(c1ccco1)N1CC[C@H]2[C@H](CCC(=O)N2Cc2cccc(F)c2)C1 | -5 | 0.9 |
| CNc1ccccc1C(=O)NCC1CCN(Cc2c[nH]cn2)CC1 | -1 | 0.16 |
| CCS(=O)(=O)Nc1cccc2c1CN(c1ccccn1)C2 | -6 | 0.99 |
| O[C@H]1CN(Cc2ccc(Cn3cccn3)cc2)C[C@@H]1N1CCN(c2ccccn2)CC1 | -18 | 1.68 |
| Cc1cc(N2C(=O)CCS2(=O)=O)ccc1S(=O)(=O)Nc1cccc2cccnc12 | -3 | 0.45 |
| COc1cccc(CC(=O)Nc2cc(C)ccc2N2CCCN(Cc3cccc(OC(F)(F)F)c3)C2=O)c1 | 1 | -0.09 |
| Cc1ccoc1C(=O)NC[C@H](C)NC(=O)OC(C)(C)C | 0 | -0.02 |
